The other results are listed elsewhere or left out.
Tested on: HepG2
Assay: cytotoxicity call (relative viability < 0.9)
Settings: 10 µM

SMILES | cytotoxicity call
C[C@H]1CN([C@@H](C)CO)C(=O)c2cccc(NS(=O)(=O)c3cccs3)c2O[C@H]1CN(C)S(=O)(=O)c1ccc(F)cc1 | inactive
O=C(CN1CCOCC1)NCC[C@@H]1CC[C@H](NS(=O)(=O)c2ccc(Cl)cc2)[C@H](CO)O1 | inactive
CN1C(=O)c2cc(NC(=O)C3CCOCC3)ccc2OC[C@H]2O[C@@H](CC(=O)NCCc3ccncc3)CC[C@H]21 | inactive
COc1ccc(NC(=O)N2C[C@H](O)COC[C@H]3O[C@H](CC(=O)NC4Cc5ccccc5C4)CC[C@@H]32)cc1 | inactive
CNC[C@H]1Oc2c(NS(=O)(=O)c3cn(C)cn3)cccc2C(=O)N([C@H](C)CO)C[C@@H]1C | inactive
Cc1ccc(S(=O)(=O)N(C)C[C@@H]2OCCCC[C@@H](C)Oc3ccc(NC(=O)Nc4cccc5ccccc45)cc3C(=O)N([C@@H](C)CO)C[C@@H]2C)cc1 | inactive
O=C(C[C@H]1CC[C@H]2[C@@H](COC[C@H](O)CN2S(=O)(=O)c2ccccc2)O1)NCc1ccc2c(c1)OCO2 | inactive
Cc1ccc(S(=O)(=O)N(C)C[C@H]2Oc3ncc(C#CC4(O)CCCC4)cc3C(=O)N([C@@H](C)CO)C[C@H]2C)cc1 | inactive
C[C@H](CO)N1C[C@H](C)[C@@H](CN(C)S(=O)(=O)c2cccs2)Oc2ccc(NS(C)(=O)=O)cc2CC1=O | inactive
C[C@@H]1CCCCO[C@@H](CN(C)C(=O)CCC(F)(F)F)[C@@H](C)CN([C@@H](C)CO)C(=O)c2cc(NS(=O)(=O)c3ccc(F)cc3)ccc2O1 | inactive
C=CCNC(=O)C(=O)NC[C@H]1OCCCN1S(=O)(=O)c1ccccc1 | inactive
O=C(CCc1ccc(O)cc1)c1c(O)c([C@@H]2O[C@H](CO)[C@@H](O)[C@H](O)[C@H]2O)c(O)c([C@@H]2O[C@H](CO)[C@@H](O)[C@H](O)[C@H]2O)c1O | inactive

Tested on: S. aureus RN4220
Assay: growth inhibition call (relative growth <= 0.2)
Settings: 50 µM

SMILES | growth inhibition call
CS(=O)(=O)O.OC(CCN1CCCCC1)(c1ccccc1)c1ccccc1 | inactive
C[C@H](CO)N1C[C@H](C)[C@H](CN(C)Cc2ccc(Oc3ccccc3)cc2)Oc2ccc(NS(=O)(=O)c3ccc(Cl)cc3)cc2CC1=O | inactive
C[C@@H]1CN([C@@H](C)CO)C(=O)Cc2cc(NS(C)(=O)=O)ccc2O[C@H]1CN(C)Cc1ccc(C(=O)Nc2ccccc2N)cc1 | inactive
C[C@H](CO)N1C[C@H](C)[C@H](CN(C)S(=O)(=O)c2ccc(F)cc2)Oc2ccc(NS(=O)(=O)c3cn(C)cn3)cc2CC1=O | inactive
C[C@@H]1CCCCO[C@H](CN(C)C(=O)Nc2ccc3c(c2)OCO3)[C@H](C)CN([C@H](C)CO)C(=O)c2cc(NC(=O)Nc3ccc(F)cc3)ccc2O1 | inactive
C[C@H](CO)N1C[C@H](C)[C@@H](CN(C)Cc2cccc(C(=O)O)c2)Oc2ncc(C#CCN(C)C)cc2C1=O | inactive
Cn1cnc(S(=O)(=O)N2C[C@H](O)COC[C@H]3O[C@H](CC(=O)NCc4cccc(F)c4)CC[C@@H]32)c1 | inactive
COCC#Cc1cnc2c(c1)C(=O)N([C@@H](C)CO)C[C@@H](C)[C@H](CN(C)C(=O)Nc1ccccc1OC)O2 | inactive
C[C@H](CO)N1C[C@H](C)[C@@H](CN(C)C(=O)Nc2cccc3ccccc23)OCCCC[C@H](C)Oc2ccc(NC(=O)Nc3ccc4c(c3)OCO4)cc2C1=O | inactive
C[C@@H]1CN([C@@H](C)CO)C(=O)c2cc(NC(=O)Nc3ccc(C(F)(F)F)cc3)ccc2O[C@@H](C)CCCCO[C@H]1CN(C)C(=O)Cc1ccccc1 | inactive
Cc1noc(C)c1S(=O)(=O)N(C)C[C@@H]1Oc2ccc(NS(=O)(=O)c3ccc(F)cc3)cc2CC(=O)N([C@H](C)CO)C[C@@H]1C | inactive
COc1ccccc1CNC(=O)C[C@H]1C[C@@H]2c3cc(NC(=O)Nc4ccc(C(F)(F)F)cc4)ccc3O[C@@H]2[C@@H](CO)O1 | inactive
C[C@@H]1CCCCO[C@@H](CN(C)C(=O)c2ccccc2)[C@@H](C)CN([C@H](C)CO)C(=O)c2cc(NC(=O)NC3CCCCC3)ccc2O1 | inactive
CC(C)NC(=O)Nc1cccc2c1O[C@@H](CN(C)S(=O)(=O)c1cccs1)[C@@H](C)CN([C@H](C)CO)C2=O | inactive
COc1ccc(CN(C)C[C@H]2OCCCC[C@H](C)Oc3ccc(NC(=O)CCC(F)(F)F)cc3C(=O)N([C@H](C)CO)C[C@@H]2C)cc1 | inactive
Cn1cnc(S(=O)(=O)N2C[C@H](O)COC[C@@H]3O[C@@H](CC(=O)N4CCN(c5ccccc5)CC4)CC[C@H]32)c1 | inactive

From the antibiotic and cytotoxicity screens of Wong et al. (2023)
